Data from publication PMC4336329 (PLoS ONE, 2015).
Among all 310,000 compounds or so, about 2,200 (0.71%) showed an effect of 50% or more. Effects have a minus sign here. The list shows a part of the results.

biological target: human ether-à-go-go-related gene (hERG) potassium channel (human, UniProt Q12809); assay: primary screen, population patch clamp on CHO cells stably expressing hERG
Sequence (Q12809 whole entry, looked up): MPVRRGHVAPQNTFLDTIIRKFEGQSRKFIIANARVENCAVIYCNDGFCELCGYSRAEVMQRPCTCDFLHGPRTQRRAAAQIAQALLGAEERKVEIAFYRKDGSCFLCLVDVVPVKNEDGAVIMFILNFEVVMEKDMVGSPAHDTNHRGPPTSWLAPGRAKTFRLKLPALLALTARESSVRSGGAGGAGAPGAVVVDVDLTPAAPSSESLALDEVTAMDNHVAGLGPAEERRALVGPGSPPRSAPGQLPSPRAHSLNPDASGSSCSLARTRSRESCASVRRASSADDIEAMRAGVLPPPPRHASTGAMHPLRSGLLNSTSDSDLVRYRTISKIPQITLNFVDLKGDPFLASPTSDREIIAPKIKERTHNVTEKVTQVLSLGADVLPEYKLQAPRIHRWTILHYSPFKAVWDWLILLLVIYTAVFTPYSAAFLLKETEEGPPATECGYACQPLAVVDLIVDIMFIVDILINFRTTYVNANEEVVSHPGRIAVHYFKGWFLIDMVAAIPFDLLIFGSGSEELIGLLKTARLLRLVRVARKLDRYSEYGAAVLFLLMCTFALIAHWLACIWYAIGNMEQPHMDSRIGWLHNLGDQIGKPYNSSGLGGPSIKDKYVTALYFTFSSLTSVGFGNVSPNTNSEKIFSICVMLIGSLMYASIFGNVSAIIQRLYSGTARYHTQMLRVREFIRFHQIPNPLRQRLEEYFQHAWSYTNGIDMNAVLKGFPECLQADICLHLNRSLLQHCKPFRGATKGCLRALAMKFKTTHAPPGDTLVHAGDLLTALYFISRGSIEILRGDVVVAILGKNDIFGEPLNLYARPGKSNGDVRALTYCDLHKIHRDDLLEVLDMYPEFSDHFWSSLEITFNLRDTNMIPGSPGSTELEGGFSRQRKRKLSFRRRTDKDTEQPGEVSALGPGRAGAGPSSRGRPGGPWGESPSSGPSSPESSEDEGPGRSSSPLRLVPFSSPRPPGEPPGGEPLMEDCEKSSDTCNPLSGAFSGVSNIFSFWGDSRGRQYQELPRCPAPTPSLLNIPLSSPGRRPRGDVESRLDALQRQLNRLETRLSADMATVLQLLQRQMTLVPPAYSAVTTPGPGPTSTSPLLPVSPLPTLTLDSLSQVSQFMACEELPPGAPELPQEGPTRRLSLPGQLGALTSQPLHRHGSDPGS

SMILES | hERG current change (%, negative = inhibition) at 1uM
CC(C)N(Cc1cc2ccccc2[nH]c1=O)C(=O)c1cccnc1 | 3.69%
Cc1ccc(OCC(O)CN2CCOCC2)cc1 (centres unmarked) | 12.8%
Cc1ccc(S(=O)(=O)NCCSc2nnnn2-c2ccccc2)cc1 | -4.5%
CCCc1nnc(NC(=O)CCC(=O)Nc2ccc(Br)cc2)s1 | 16.6%
COc1ccc(NS(=O)(=O)c2ccc(C)c(NC(=O)CN3C(=O)NC4(CCCC4)C3=O)c2)cc1 | -0.94%
CC(=O)Nc1cc(C(=O)N2CCc3ccccc3C2)ccc1Sc1ccc(F)cc1 | 2.27%
O=c1c(-c2ccc(O)cc2)coc2c([C@@H]3O[C@H](CO)[C@@H](O)[C@H](O)[C@H]3O)c(O)ccc12 | 14%
N#Cc1cc(Sc2ccccn2)c([N+](=O)[O-])cc1C#N | 9.57%
Cc1nn(C)cc1/C=N\NC(=O)c1ccc2c(c1)c(C)c(C)n2Cc1ccccc1 | 15.9%
COc1ccccc1CNC(=O)C1CC(c2ccccc2C(F)(F)F)=NO1 (centres unmarked) | 6.23%
O=C(O)C1C2C=CC(C2)C1C(=O)NCCCN1CCCC1=O (centres unmarked) | 7.12%
COC(=O)C1=C(C)NC(=O)CC1c1cccc(Cl)c1Cl (centres unmarked) | 5.06%
COc1ccccc1NC(=O)c1nn(-c2ccccc2)ccc1=O | 12.1%
CCCCc1n[nH]c2c1/C(=N/O)CC(c1ccccc1)C2 (centres unmarked) | 16.7%
O=C(NCc1ccccc1CN1CCCCC1)c1ccccc1N1CCCC1=O | 18.3%
Cn1cnc2cc(NC(=O)c3ccco3)ccc21 | 16.7%
O=c1[nH]c(CN2CCN(CCO)CC2)nc2ccccc12 | 19.8%
Cn1c(O)c(C=NCCN2CCOCC2)c(=O)[nH]c1=S | 8.39%
O=C(NC1CCCCC1)c1ccc(-c2ccccc2)cc1 | 17.4%
Cc1ccc2c(c1)N(CC(=O)N1CCC(C)CC1)C(=O)c1cccnc1O2 | -2.61%
COc1ccc(N(C)S(=O)(=O)c2cccc(C(=O)Nc3nc(C)c(C(C)=O)s3)c2)cc1 | 9%
CCOC(=O)c1cccc(NC(=O)CCc2nnc3ccc(N4CCN(C)CC4)nn23)c1 | 12.3%
CCN1CCN(S(=O)(=O)c2ccc3[nH]c(=O)oc3c2)CC1 | 10.9%

SMILES | hERG current change (%, negative = inhibition) at 1uM
c1ccc(Cn2nnnc2C(c2ccccn2)N2CCN(c3ccccc3)CC2)cc1 (centres unmarked) | 6.57%
CN(C)c1ncc(C(=O)O)cn1 | 14.2%
Cc1ccc(CNC(=O)C2CCC(CNS(=O)(=O)c3cccs3)CC2)cc1 (centres unmarked) | -17.8%
COc1ccc(C(=O)N/C(=C\c2ccc(Cl)cc2)C(=O)NCC2CCCO2)cc1 (centres unmarked) | 4.36%
CCc1nc2ccccc2c(C(=O)Oc2ccc(C(=O)OC)cc2)c1C | 8.96%
CN(Cc1ccc2c(c1)OCO2)C(=O)c1cc(-c2ccccc2)c(N2CCOCC2)s1 | 11.4%
Cc1nc(NC(=O)CSc2ccccc2N)sc1C | 2.21%
CC(C)Oc1ccc(Oc2ccc(C(F)(F)F)cn2)cc1 | 10.4%
CCN(CC)CC(=O)N1c2ccccc2Sc2ccccc21 | 8.21%
CCOC(=O)c1c(NC(=O)C(C)Sc2nnc(C)c(=O)[nH]2)sc2c1CCCC2 (centres unmarked) | 12.4%
O=C1c2ccccc2C(=O)N1CSc1nnnn1-c1ccccc1 | 9.46%
CCOc1ccccc1NC(=O)C(Sc1nnnn1C)c1ccccc1 (centres unmarked) | 16.8%
Cc1cc(C)nc(N2CCN(CC(=O)NCc3ccccc3)CC2)n1 | -3.58%
COCCCNC(=O)N1c2ccccc2Sc2ccccc21 | 11.2%
O=C(/C=C/c1ccc(OCCCF)cc1)Nc1ccnc(-c2cccnc2)n1 | 11.7%
CCC(C)(C)c1ccc2c(c1)C(=O)c1ccccc1C2=O | 3.25%
CC(NC(=O)C(NS(=O)(=O)c1cccc2nsnc12)C(C)C)c1ccccc1 (centres unmarked) | 3.06%
Cn1c(=O)c2c(SCc3c(F)cccc3Cl)nc(CC(C)(C)C)nc2n(C)c1=O | 8.71%
Cc1ccc(C(=O)NNC(=O)C2CCN(C(=O)OC(C)(C)C)CC2)cc1 | 13.3%
O=C(NCC(=O)N1CCCCCCC1)c1ccccc1Cl | 13.5%
Cn1ncc(SCc2ccccc2)c(Cl)c1=O | 16.2%
CNC(=O)CN1C(=O)CSc2ncccc21 | 11.3%
CCOc1ccc(NC(=O)CN(C)S(=O)(=O)c2cccc3cccnc23)cc1 | 13.1%

SMILES | hERG current change (%, negative = inhibition) at 1uM
COc1ccc(NC(=O)N(CCN2CCCC2)Cc2cc3cc(OC)c(OC)cc3[nH]c2=O)cc1 | 4.65%
CN1CCN(NC(=O)c2cn(-c3ccccc3)nc2-c2cccc(Br)c2)CC1.Cl | 21.5%
Cn1nccc1NC(=O)CC1(CC(=O)O)CCCCC1 | 8.91%
CCOC(=O)N1CCC(NC(=O)Cn2ncc3ccccc32)CC1 | 12.1%
COCCC(=O)N1CCC(C(=O)Nc2ccc(Oc3ccccc3)nc2)CC1 | 19.2%
CCc1ccccc1NC(=S)N(CCN(C)C)C(C)c1ccco1 (centres unmarked) | 16.2%
CCCCN(CCCC)Cc1ccc(C(=O)NNC(=O)Nc2ccc(Cl)cc2)o1 | 9.34%
CC(C)=CCc1c([C@@H]2CCc3ccc(O)cc3O2)cc2c(c1O)OC(C)(C)C=C2 | 15.5%
Cn1c2ccccc2c2nnc(SCC(=O)NC3CC3)nc21 | 10.4%
CC(C)(C)NC(=S)/N=C(\N)N[N+](=O)[O-] | 9.26%
CCCCCCNC(=O)Nc1ccccc1 | 17.7%
O=C(COC(=O)Cn1nnc2ccccc21)Nc1ccccc1Br | 0.589%
C=CSc1sc(Cl)c(N2CCOCC2)c1[N+](=O)[O-] | 5.62%
CCCCCCCCCCCCN1C/C(=C\C(=O)OCC)c2cc(C(F)(F)F)ccc2S1(=O)=O | 8.97%
O=C(Cc1ncc(C(F)(F)F)cc1Cl)NNc1cccc(F)n1 | 21.4%
O=C(NC(=S)Nc1ccc(S(=O)(=O)Nc2ncccn2)cc1)c1cccc(Br)c1 | 16.6%
CN(CC(=O)Nc1cccc(F)c1)CC(=O)NC(c1ccccc1)c1ccccc1 | 2.52%
O=C1COc2ccc(S(=O)(=O)NCCc3ccc(Cl)cc3)cc2N1 | 6.66%
Cc1ccc(C(C)C)c(OCc2nn(CC(=O)c3ccc(Cl)cc3)c3[n+]2CCCCC3)c1.[Br-] | 6.6%
COc1ccc(NC(=O)CCN2CC(C)OC(C)C2)c(OC)c1.Cl (centres unmarked) | 11.8%
C/C(=N/NC(=O)CSc1nc2ccccc2s1)c1ccncc1 | 4.94%
C[C@@H](C(=O)O)[C@H]1C[C@]1(C)[C@H](NC(=O)OCc1ccccc1)c1ccccc1 | 8.33%
Cc1ccc(C(C)C)cc1OCC(=O)NC1CCCCCCC1 | 11.5%

SMILES | hERG current change (%, negative = inhibition) at 1uM
O=C(c1cc(COc2ccc(F)cc2Cl)on1)N1CCC(c2ccncc2)CC1 | -29.1%
O=C(O)c1ccc(Nc2cc(Cl)c3nonc3c2[N+](=O)[O-])cc1 | 13.3%
O=C(C[n+]1cc(-c2ccc(Cl)cc2)n2c1CCC2)Nc1nc(-c2ccc(F)cc2)cs1.[Cl-] | 12.6%
CC(C)c1ccc(CN(C(=O)/C=C/c2ccco2)C2CCS(=O)(=O)C2)cc1 (centres unmarked) | 11.3%
CN(C)S(=O)(=O)c1ccc(Cl)c(NC(=O)CN2C(=O)NC3(CCc4ccccc43)C2=O)c1 (centres unmarked) | 6.94%
N#C/C(=C\c1ccc(OCCN2CCOCC2)cc1)C(=O)Nc1ccc(S(N)(=O)=O)cc1 | 13.3%
O=C1c2ccccc2C(=O)N1CCCc1nc(-c2ccc(Cl)cc2)no1 | 11.6%
O=C1CSC(c2ccccc2)N1Cc1ccccn1 (centres unmarked) | 13.7%
CC(=O)N1CCC(=NNC(=O)c2cccs2)CC1 | 1.76%
CS(=O)(=O)Nc1ccc2c(c1)nc1n2CCOC1 | -0.668%
COc1ccccc1CC(=O)Nc1ccc(-c2noc(COc3ccc(Br)cc3)n2)cc1 | 9.61%
COC(=O)c1ccc(COc2cccc3c2CCN(Cc2cccc(C)c2)C3=O)o1 | 10.9%
O=C(CN1CCN(c2ccccn2)CC1)Nc1ccc(F)c(F)c1 | -4.56%
COc1ccc(-c2nnc(-c3cccs3)o2)cc1OC | -8.4%
O=C(OCC1OC(n2ccc(=O)[nH]c2=O)C(O)C1OC(=O)c1ccccc1)c1ccccc1 (centres unmarked) | -4.77%
Cc1ccc2c(c1)c(/C=C/c1cc[n+](C)cc1)c(C)n2C.[I-] | 6.16%
CC(=O)Nc1ccc(S(=O)(=O)N2CCN3CCCC3C2)cc1 (centres unmarked) | 12.9%
CC1(O)C(=O)C=C2C=C(c3ccsc3)OC=C2C1=O (centres unmarked) | 3.84%
COc1cc(Cl)c(C)cc1NC(=O)Cc1cccs1 | 14.7%
COc1ccccc1N=c1scc(-c2ccc3c(c2)NC(=O)CO3)n1CC1CCCO1 (centres unmarked) | -0.659%
